Test results as given in patent US9610259B2, “Compositions and methods for treating an autism spectrum disorder” (Children's Hospital Medical Center, priority 2014, dated 2017).
Where a name gives a salt, the structure may show the parent alone. Read-outs that look alike come from different tables or passages of the source.

How the values were obtained:
[1] = cited from earlier work
[2] = system: persons with ASD; settings: in vivo; cited from earlier work
[3] = system: patients with ASD / Autistic Disorder
[4] = cited from earlier work; remark: listed apart in the source
[5] = cited from earlier work; remark: listed apart in the source
[6] = IN 30-120 mg per dose, 12 youth ages 6 to 19 years, open-label

Structure (SMILES): CNC1(c2ccccc2Cl)CCCCC1=O (racemic) [racemic ketamine HCL]
- incidence of emergence reactions ([1]; prescribing information): 12%

Structure (SMILES): NC12CC3CC(CC(C3)C1)C2 [amantadine]
- outcome of placebo-controlled trials in ASD [2]: negative

Structure (SMILES): CNC1(c2ccccc2Cl)CCCCC1=O (stereo not shown) [ketamine, 2-(2-chlorophenyl)-2-(methylamino)-cyclohexanone]
- Fixation Duration on Face, post-dose ([3]; Example 4, person, 40 mg IN weekly, pre-dose 14.01, FIG. 3): 21.7 s
- Fixation Duration on Eyes, post-dose ([3]; Example 5, person, initial 20 mg IN, 1 hour post-dose, pre-dose 2.92, FIG. 4): 12.79 s
- incidence of airway or respiratory complications ([1]; 2009 meta-analysis of 8,282 pediatric ketamine sedation cases): 3.9%
- incidents of emergence reaction ([1]; case series in 17 mentally handicapped adults undergoing sedation): no incidents
- outcome of unintentional overdose ([1]; children, 5 to 100 times the intended dose): prolonged but complete recovery
- incidence of emergence reaction ([1]; meta-analysis of ketamine use in children): 1.4%
- duration of dissociative symptoms after dosing [4, 6]: less than 60 minutes
- symptoms of bipolar disorder [4, 6]: improved
- time to resolution of transient increase in dissociative symptoms ([4]; IV 0.5 mg/kg, depression): less than 90 minutes
- depression symptoms ([4]; IV 0.5 mg/kg): rapidly improve
- plasma levels required for ketamine induced anesthesia ([5]; adults): 0.6 to 2.0 µg/mL
- mean peak plasma concentration ([5]; children ages 2-9 years, 10-30 kg, 3 mg/kg IN, also printed 0.496 μg/ml): 496 ng/mL
- plasma levels required for ketamine induced anesthesia ([5]; children): 0.8 to 4.0 µg/mL

Structure (SMILES): N[C@@H]1CONC1=O [DCS, d-cycloserine]
- outcome of placebo-controlled trials in ASD [2]: negative
